From a collection of fitness landscapes (doi:10.1016/j.celrep.2020.107928)
In all, about 81,000 sequences were measured (“one-hybrid fitness for binding NBS DNA”: median about -0.1, highest 2% from about 0.36 on). The list shows a part of the results.

B1: Caulobacter ParB omega fusion; a variant is named by its letters at X, in order, B8GW30 (parent)
chain: MESVVVGEPGMSEGRRGLGRGLSALLGEVDAAPAQAPGEQLGGSREAPIEILQRNPDQPRRTFREEDLEDLSNSIREKGVLQPILVRPSPDTAGEYQIVAGERAWRAAQRAGLKTVPIMVRELDDLAVLEIGIIENVQRADLNVLEEALSYKVLMEKFERTQENIAQTIGKSXSHVANXMRLLXLPDEVQSYLVSGELTAXHARAIAAAADPVALAKQIIEGGLSVRETEALARKAPNLSAGKSKGGRPPRVKDTDTQALESDLSSVLGLDVSIDHRGSTGTLTITYATLEQLDDLCNRLTRGI

Variants of: B1
Assay: one-hybrid fitness for binding NBS DNA (the Noc-binding site; scaled: cognate 1, non-cognate 0); higher = stronger binding
Conditions: with NBS DNA site
In short: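 Fitness is the rescaled log change in variant-to-wild-type read ratio, measured by Illumina sequencing of plasmids before and after bacterial one-hybrid selection. The scale puts cognate at 1 and non-cognate at 0. Selection of Caulobacter ParB libraries, four specificity codons randomised, took place in E. coli USO with a HIS3 reporter, site 19 bp from the promoter, over 48 hours at 37°C on M9-minus-histidine with 0.1 mM IPTG and 5 mM 3-AT.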

one-hybrid fitness for binding NBS DNA, 1.15:
QTRR

one-hybrid fitness for binding NBS DNA, 0.394:
QMQS

one-hybrid fitness for binding NBS DNA, ≤ 0.2:
LGNT
YFGG
KTYK
GDKC
VPTY
RFLR
TSCY
QTLI
SCLC
SRPR
VFPT
QQDN
SGTR
PSDA
VVTY
RNRW
ESAP
DTWV
TNPF
FGLC
NALR
INYC
GIAC
STLC
WDTC
GTSF
CLRR
QFSA
TWGS
DSES
TAFA
CECS
RGSD
YAGS
EAPN
ECQS
HNCC
SRSA
ATFF
LARK
PVGP
TTML
LWPT
HFSI
VQRG
PSAY
TCTF
TNDS
RQYH
TNCS
RECS
RVAV
SKNN
AWPR
TVIY
CVVT
RLKK
NSYL
NCHS
DLPT
YSYP
FYTN
SLSY
AWLT
KDKK
WTRI
SGTE
YRNR
DGCS
PCLC
STFK
GDTA
SNYV
LRVE
TAHV
EQVG
RKFN
HKNS
CPSY
RNEM
AQCN
QVPP
DRIA
DWTG
SCMT
PHSY
QPDF
QVHW
VGTA
QQHL
ECSG
LVNW
TQFT
NVSM
DRVG
FAVR
CEYG
PYSS
LSDS
THRL
TKEA
AAII
NHCL
QSLF
VQSH
IPST
DAEG
NYPV
LDLR
CLPV
RTNG
PPRL
YASC
AVCS
NQPQ
KNTS
TITW
HGTV
RWFL
HSDT
QWDK
THPE
PFFR
TGIA
HEKC
HQGC
RVTF
PSQC
QMFE
FLPY
HFRW
YGTG
VSKA
QNEY
HCID
YNGR
ICGG
QDSQ
SEPV
SEQR
PQNC
FVKT
VACC
LICT
WTVG
QWWL
VHRG

one-hybrid fitness for binding NBS DNA, 0.381:
QRDH

one-hybrid fitness for binding NBS DNA, 0.744:
RTNR

one-hybrid fitness for binding NBS DNA, 0.23:
QAPT

one-hybrid fitness for binding NBS DNA, 0.218:
FSKR
